# Results as given in publication PMC4336329 (PLoS ONE, 2015).
# Out of some 310,000 compounds screened, about 2,200 (0.71%) showed an effect of 50% or more. Effects have a minus sign here. The list shows a part of the results.
# Target: human ether-à-go-go-related gene (hERG) potassium channel (human, UniProt Q12809)
# Assay: primary screen, population patch clamp on CHO cells stably expressing hERG
# Sequence of human ether-à-go-go-related gene (hERG) potassium channel (Q12809 whole entry, looked up): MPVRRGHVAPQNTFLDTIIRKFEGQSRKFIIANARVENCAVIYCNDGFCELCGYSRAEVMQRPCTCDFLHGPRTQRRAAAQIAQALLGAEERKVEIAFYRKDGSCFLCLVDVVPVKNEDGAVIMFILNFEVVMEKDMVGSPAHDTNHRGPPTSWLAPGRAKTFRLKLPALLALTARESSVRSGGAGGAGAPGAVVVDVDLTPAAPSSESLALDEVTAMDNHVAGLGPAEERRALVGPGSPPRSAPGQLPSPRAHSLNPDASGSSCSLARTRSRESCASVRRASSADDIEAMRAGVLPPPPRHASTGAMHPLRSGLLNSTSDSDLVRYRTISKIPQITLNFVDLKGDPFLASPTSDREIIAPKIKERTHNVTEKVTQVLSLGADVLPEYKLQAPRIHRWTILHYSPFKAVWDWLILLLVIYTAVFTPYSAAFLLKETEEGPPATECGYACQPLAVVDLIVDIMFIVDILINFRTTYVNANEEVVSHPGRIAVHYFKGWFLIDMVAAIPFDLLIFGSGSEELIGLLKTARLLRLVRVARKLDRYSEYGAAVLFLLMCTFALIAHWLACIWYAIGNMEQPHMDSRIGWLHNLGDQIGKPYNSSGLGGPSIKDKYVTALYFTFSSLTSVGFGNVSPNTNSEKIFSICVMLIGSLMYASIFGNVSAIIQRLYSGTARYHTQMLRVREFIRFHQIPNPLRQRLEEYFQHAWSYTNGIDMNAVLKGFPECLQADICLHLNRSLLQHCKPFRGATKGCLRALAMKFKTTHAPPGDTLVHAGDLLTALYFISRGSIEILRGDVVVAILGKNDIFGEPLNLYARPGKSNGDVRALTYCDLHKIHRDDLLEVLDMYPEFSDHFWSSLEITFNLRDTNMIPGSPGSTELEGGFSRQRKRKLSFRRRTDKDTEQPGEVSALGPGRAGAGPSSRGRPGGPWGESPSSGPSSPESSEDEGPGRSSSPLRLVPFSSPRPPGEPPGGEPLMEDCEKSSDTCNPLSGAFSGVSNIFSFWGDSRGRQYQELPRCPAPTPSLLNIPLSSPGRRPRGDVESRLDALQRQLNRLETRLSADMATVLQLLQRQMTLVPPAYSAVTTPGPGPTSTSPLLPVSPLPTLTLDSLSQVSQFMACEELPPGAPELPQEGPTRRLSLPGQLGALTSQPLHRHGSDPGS
row,SMILES,"hERG current change (%, negative = inhibition) at 1uM [%]"
1,COc1cc(NC(=O)C2CCCN(c3ncccn3)C2)cc(OC)c1 (stereo not drawn),14.7
2,CCN1C(=O)CC(N2CCOCC2)C1=O (stereo not drawn),10.8
3,COc1ccccc1NC(=O)CSc1nnc(COc2ccc(Cl)cc2)n1Cc1ccco1,11.5
4,CC(c1ccccc1)C1CC(=O)N(c2ccccc2)C1=O (stereo not drawn),10.5
5,O=C(c1nc2ccc(Cl)cn2c1CNCCn1ccnc1)N1CCCCCCC1,3.67
6,Cc1cccc(C(=O)Oc2cc(C)[nH]c(=O)c2[N+](=O)[O-])c1,17.1
7,COc1ccccc1-c1cn(S(=O)(=O)c2ccc(F)cc2)nc1N,0.868
8,COc1cccc(CNc2ccc3c(c2)CCC3)c1,15.8
9,O=C1CC(c2ccco2)CC2=C1C(c1ccccc1)n1nc(C(F)(F)F)nc1N2 (stereo not drawn),15.4
10,CCc1ccc(OCC(=O)N/N=C/c2ccc(OS(=O)(=O)c3ccc(C)cc3)c(OC)c2)cc1,8.45
11,CC[C@H](C)[C@@H](NC(=O)O[C@@H]1C(=O)c2cc(Br)ccc2O[C@H]1c1cccc(OC)c1)C(=O)OC,7.63
12,CCN(CC)S(=O)(=O)c1cccc(NC(=O)COC(=O)c2cc(C)oc2C)c1,-10.2
13,COc1ccc(CNC(=O)CN(Cc2ccc(F)cc2)C(=O)CCC(=O)Nc2nccs2)cc1,-1.85
14,CCOc1ccc(S(=O)(=O)NCCCN2CCOCC2)cc1,9.88
15,COc1ccc(NC(=O)CSCc2cc(=O)n3c(C)csc3n2)cc1,14.9
16,COc1ccccc1CCn1c(N)cc(=O)[nH]c1=O,15.5
17,C/C(=N\NC(=O)c1c(C)nc2ccccn12)c1ccc(N2CCOCC2)cc1,6.09
18,COc1cc2c(cc1NC(=O)CN(C)Cc1cccc(OC)c1OC)oc1ccccc12,15
19,CCOC(=O)c1ccc(NS(=O)(=O)c2c(C)[nH]c(C)c2C(=O)N2CCCCC2)cc1,10.9
20,CC1CCN(S(=O)(=O)c2ccc(S(=O)(=O)NCC(=O)C(C)(C)C)cc2)CC1,15.4
21,O=C(C1CC1)N1CCC(c2nc(-c3ccc(S(=O)(=O)N4CCCC4)cc3)no2)CC1,7.72
22,COc1ccccc1CN1C(=O)C2CC=CCC2C1=O (stereo not drawn),-11.3

row,SMILES,"hERG current change (%, negative = inhibition) at 1uM [%]"
1,O=S(=O)(N/N=C1/CC(c2ccccc2)Oc2ccccc21)c1ccc(Br)cc1 (stereo not drawn),12.5
2,COC1=CC2(O)CCCC2=CC1=O (stereo not drawn),12.4
3,O=C(NCCc1ccccc1)C1CCCN1C(=O)Nc1cccc(Cl)c1 (stereo not drawn),4.34
4,CCOC(=O)N1CCC(=NNC(=O)c2cc3ccccc3cc2O)CC1,6.6
5,Clc1ccc(-c2cc(-c3nnc4n3CCCCC4)c3ccccc3n2)cc1,4.54
6,COc1ccc(-c2nn(-c3ccccc3)cc2C(=O)N2CCN(S(=O)(=O)c3cccc(F)c3)CC2)cc1,0.0555
7,CC(C)n1c(SCC(=O)NCc2ccco2)nc2c1c(=O)n(C)c(=O)n2C,1.35
8,Cc1cccc(C)c1NC(=O)C1c2cccc[n+]2CC(=O)N1Cc1ccc2c(c1)OCO2.[I-] (stereo not drawn),15
9,CCOC(=O)/C(C#N)=C/c1ccc(OCC(=O)Nc2ccccc2)c(OC)c1,5.68
10,O=C(CSc1nnc(-c2ccc(O)cc2)n1-c1ccccc1)CC(=O)Nc1ccccc1,7.67
11,CCOC(=O)c1c(S(=O)(=O)N2CCN(c3ccc(F)cc3)CC2)c(C)n(C)c1C,14.1
12,Cc1cc(N2CCOCC2)nc2ccc(Cl)cc12,13.3
13,CCc1cccc2c1NC(=O)C2(O)N1CCCC(C)C1 (stereo not drawn),10.4
14,CCN(CC)S(=O)(=O)c1cccc(NC(=O)CNc2cccc(S(=O)(=O)N3CCOCC3)c2)c1,11.6
15,Cc1nc2ccc(NC(=O)C(F)(F)F)cc2o1,4.93
16,O=C(CSc1nnc(-c2ccco2)n1Cc1ccco1)NCc1ccccc1,-10.5
17,O=C(CSc1nc2c(c(=O)n1-c1ccccc1)SCC2)N1CCN(c2ccccc2)CC1,-2.85
18,CCCN1CCC(NC(=O)C2CC=CCC2C(=O)O)CC1 (stereo not drawn),12.2
19,N#Cc1c(N)nc2c(c1N)CC(CO)O2 (stereo not drawn),-1.36
20,FC(F)(F)c1cccc(-c2cc(C3CCNCC3)[nH]n2)c1,0.722
21,Cc1cccc2sc(NNC(=O)c3cc(=O)c4ccccc4o3)nc12,7.55
22,Cc1c(NC(=O)CSc2nc3ccccc3n2C)c(=O)n(-c2ccccc2)n1C,-3.96

row,SMILES,"hERG current change (%, negative = inhibition) at 1uM [%]"
1,CC(=O)c1ccc(N2CCN(C(=O)CCC(=O)c3cccs3)CC2)cc1,-12.7
2,Cc1nn2c(N3CCN(C(=O)c4ccco4)CC3)cc(C(C)(C)C)nc2c1-c1ccccc1,2.53
3,O=C(CSc1nccc2ccccc12)N1CCN(c2ccccn2)CC1,8.48
4,CC1CCCN(C(=O)c2cc3ccccc3cc2O)C1 (stereo not drawn),-1.49
5,CN(c1ccccc1)c1ccc(/C=N/NC(=O)CC#N)cc1,7.08
6,COCCCNC(=S)N/N=C/c1ccc(O)cc1,10
7,CCN(CC(=O)Nc1c(F)cccc1F)C(=O)CCNS(=O)(=O)c1ccc(C)c(C)c1,4.91
8,Cc1ccc(NC(=O)NC2=NN(c3ccccc3)C(=O)/C2=C2/CCCN2C)cc1,8.91
9,C/C(=N/OCC(=O)Nc1ccccc1)c1cccs1,4.47
10,Cl.O=C(CN1CCCCC1)NC1CCc2cc3c(cc21)CCC3 (stereo not drawn),10.4
11,O=Cc1cn(CC(=O)N2CCCCCC2)c2ccccc12,13.5
12,Cc1cc(C(=O)C(C)Sc2cccc[n+]2[O-])c(C)n1-c1ccc(Cl)cc1 (stereo not drawn),1.4
13,O=C(/C=C/c1c(Cl)cccc1Cl)NCc1ccco1,13
14,CCOc1cccc(/C=C2/NC(=O)N(CC(=O)Nc3cccc(C)c3)C2=O)c1O,17
15,COC(CNC(=O)CNC(=S)N(Cc1ccccc1)Cc1cccs1)OC,0.735
16,CN(C)C(=O)COc1ncnc2scc(-c3ccc(F)cc3)c12,6.75
17,Cc1cc(Br)ccc1OCC(=O)N(Cc1nc(-c2ccccc2)no1)C(C)C,4.26
18,NC(=O)C1=C[C@@H](c2ccc(Br)cc2)C[C@@H](OCc2ccc(CO)cc2)O1,8.76
19,CCCCC(=O)NC(=S)Nc1nnn(CCC)n1,18.4
20,CC1(c2ccccc2)NC(=O)N(NC(=O)COC(=O)c2cc(Br)ccc2O)C1=O (stereo not drawn),11.7
21,Cc1c(NC(=O)C(C)OC(=O)COc2ccccc2)c(=O)n(-c2ccccc2)n1C (stereo not drawn),6.03
22,O=C(NNC(=S)Nc1ccc(Br)cc1Cl)c1ccco1,16.1

row,SMILES,"hERG current change (%, negative = inhibition) at 1uM [%]"
1,Cc1ncoc1C(=O)N1CCCC(C(=O)c2ccc(Oc3ccccc3)cc2)C1 (stereo not drawn),5.54
2,Cc1noc(NS(=O)(=O)c2ccc(NC(=O)CCC3CCCC3)cc2)c1C,5.6
3,CSc1nc(-c2ccccc2)nn1C(=O)c1ccccc1,15.1
4,Cc1cc(-c2ccccc2)n2ncc(-c3ccccc3)c2n1,4.47
5,Cc1cc(=O)[nH]c(N/N=C/c2ccc(Cl)c([N+](=O)[O-])c2)n1,5.04
6,COc1ccccc1CCN=C(N)NS(=O)(=O)c1ccc(C)cc1,-0.349
7,O=c1c(Cc2c(F)cccc2Cl)c(O)ccn1CCc1ccccn1,12.1
8,CCOc1ccc(CCNC(=O)c2cccc(C#N)c2)cc1OCC,7.99
9,Cc1cccn2c(CN[C@H]3CCCCNC3=O)c(C(=O)N3CCOCC3)nc12,5.12
10,CC(=O)c1cccc(NC(=O)/C(=C/c2ccncc2)NC(=O)c2ccccc2)c1,13.4
11,O=C(Nc1ccc(Cl)cc1)c1cc2c(cc1O)[nH]c1ccccc12,9.06
12,O=C(Nc1ccc(-c2nnn(CC(=O)N3CCN(C(=O)c4ccco4)CC3)n2)cc1)c1ccccc1F,-23.1
13,CC(C)(C)CNC(CO)C12CC3CC(CC(C3)C1)C2.Cl (stereo not drawn),10.6
14,COc1ccc2c(c1OC)C(=O)N1C2SC(C)(C)[C@H]1C(=O)NC1CCCC1 (stereo partly drawn),13.6
15,CCCNC(=O)c1onc(CSc2ccc(Cl)cc2)c1C(=O)NC(C)C,-10.1
16,CCOc1ccc(N2C(=O)NC(=O)/C(=C\c3ccc(N4CCCCC4)o3)C2=O)cc1,5.27
17,Cc1ccc(NC(=O)CCSc2nnc3ccccn23)cc1,10.6
18,O=C(O)CCC(=O)N1CCc2c([nH]c3ccccc23)C1C(F)(F)F (stereo not drawn),13.4
19,Cc1ccc(S(=O)(=O)NCc2ccc(C(=O)NC3CCC(O)CC3)cc2)cc1C (stereo not drawn),12.7
20,O=C(/C=C/c1ccc2c(c1)OCO2)c1ccccn1,9.72
21,CC1(C)CC(=O)C(C(C2=C(O)CC(C)(C)CC2=O)c2cccs2)C(=O)C1 (stereo not drawn),2.32
